From PubChem BioAssay AID1508623 (National Center for Advancing Translational Sciences (NCATS), 2021)
In all, about 48,000 compounds went through this assay and about 450 (0.94%) were called active. Inconclusive results (about 19%) are left out. The call rests on the fitted dose curve; in most records, active means well fitted inhibition curve with a large enough effect; inconclusive means small, poorly fitted or top-dose-only effect; inactive means no such curve, though single readings can be large or run the other way. This is one part of the list.

Test: Primary qHTS for Identification of Small Molecule Inhibitors of Huntingtin Promoter Activity; further: nearly all actives have a fitted effect of over 50% in size
Details: HEK293 HTT promoter firefly luciferase reporter (activity 0% = vehicle and -100% = no light), 24 h; series mostly up to 57.5 µM; activity change, negative = inhibition: at the top concentration
Summary of the method: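 HEK293 luciferase promoter-reporter cells (2,500/well) plated 24 h, then compounds added at up to 57.5 uM final for 24 h at 37 °C. Firefly luminescence by Dual-Glo, normalized to vehicle (0%) and zero RLU (-100%).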

Activity change, negative = inhibition, inactive:
O=C(Nc1ccc(Cl)cc1)c1cc2c(Cl)nc3ccccc3c2s1 3.03%
CN(C)c1ccc(-c2noc(C3CC(=O)N(c4ccc5c(c4)OCCO5)C3)n2)cc1 (stereo unspecified) -1.87%
COC(=O)CSc1nc2sc3c(c2c(=O)n1Cc1ccccc1)CCC(C(C)(C)C)C3 (stereo unspecified) -13.5%
COc1cc(C(=O)OCCCN2CCCN(CCCOC(=O)c3cc(OC)c(OC)c(OC)c3)CC2)cc(OC)c1OC 1.39%
CCc1ccc(CNC(=O)c2nn(-c3ccc(OC)c(Cl)c3)c(=O)c3c2c2ccccc2n3C)cc1 -11.7%
COc1ccc(-c2c3c(nc4sc(C(=O)Nc5ccccc5F)c(N)c24)CC(C)(C)CC3=O)cc1 -10.6%
CCN(Cc1ccccc1)C(=O)CN1C(=O)CSc2ccc(S(=O)(=O)N(CC)CC)cc21 -8.15%
COc1ccc(-c2nn(CC(=O)NCc3ccccc3)c3c2cnc2ccc(F)cc23)cc1 45.4%
CCOc1ccccc1NC(=O)CN1C(=O)COc2ccc(S(=O)(=O)Nc3ccccc3)cc21 -13.7%
O=C(Cn1c(=O)nc(-c2ccccc2F)c2cc(Cl)ccc21)Nc1ccccc1C(F)(F)F 24.9%
Cc1ccc(-c2nc3nc(C)cc(N4CCN(c5cccc(C)c5)C(C)C4)n3n2)cc1 (stereo unspecified) 5.58%
Cc1ccc(NC(=O)C2CCCN(S(=O)(=O)c3ccc4[nH]c(=O)ccc4c3)C2)cc1C (stereo unspecified) -5.23%
CCCCN(C)CCCNC(=O)CN1C(=O)CSc2ccc(S(=O)(=O)N3CCOCC3)cc21 -1.57%
COc1cccc(C(=O)Nc2nc3nc(C)c(C)c(=O)n3[nH]2)c1 -11.3%
CCn1cc(C(=O)N2CCN(c3ccccc3)CC2)c(=O)c2cc(S(=O)(=O)N3CCCC3)ccc21 14.8% [at 11.5 µM]
CCc1ccccc1NC(=O)Cc1cn(C)c2ccccc12 -9.53%
O=C(Nc1c(O)c2ccccc2oc1=O)c1cccc(F)c1 -16.5%
Cc1ccc(Nc2ncnc3onc(C)c23)cc1Cl -18.7%
CCOc1ccc(S(=O)(=O)Nc2cccc(C)c2)c2cccnc12 -23.7%
Cc1cc(C)cc(NC(=O)c2ccc3c(O)c(S(=O)(=O)c4ccccc4)c(=O)[nH]c3c2)c1 -1.24%
COc1cc(Cl)c(C)cc1NC(=O)c1ccc(CN2C(=O)CCn3nc(C)cc32)cc1 -20.9%
Cc1c(Cl)cccc1NC(=O)CSc1ncc(S(=O)(=O)c2ccc(C(C)C)cc2)c(=O)[nH]1 -9.71%
CCC1(c2cnc[nH]2)Cc2ccccc2C1 -5.39%
CCCCOC(=O)c1ccc(NC(=O)Cc2coc3c(C)c(C)ccc23)cc1 -44.4%
COC(=O)c1ccccc1NC(=O)C1(c2cccs2)CCOCC1 -7.19%
CCOC(=O)c1c(C)[nH]c(C)c1S(=O)(=O)N1CCCC(C(=O)Nc2ccc(C)c(N(C)C)c2)C1 (stereo unspecified) -22.7%
